# Data published in PubChem BioAssay AID651820 (National Center for Advancing Translational Sciences (NCATS), 2012).
# The whole screen tested about 340,000 compounds, of which about 12,000 (3.5%) were called active. This list was built around the results that the source calls inconclusive (neither active nor inactive); the mix of calls is not that of the screen. Calls follow the shape of the dose curve; as a rule, active = well fitted inhibition curve with a large enough effect; inconclusive = small, poorly fitted or top-dose-only effect, or another doubt; inactive = no such curve, though single readings can be large or run the other way. Potencies of inconclusive entries are left out as doubtful fits.
# Assay: qHTS Assay for Inhibitors of Hepatitis C Virus (HCV)
# Conditions: Huh7.5.1 HCVcc-Cre (HCVcc is cell-culture hepatitis C virus) infection, luciferase reporter, 44 h; activity change, negative = inhibition: at 41.8 µM (top of the series) unless noted
# Method in brief: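 Cells (1,000/well) were plated 4 h before compound, then infected with HCVcc-Cre virus (~0.5 moi). After 44 h further culture, infection was read as luciferase luminescence following a 15 min substrate incubation at room temperature.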
# % is scaled to controls: 0 for no effect and ±100 for the full control effect; potency is read from the fitted curve at half-maximal effect; tags tell the direction and shape of the fitted curve.
Structure (SMILES),"activity change, negative = inhibition",Potency
CC(=O)Oc1ccc2occ(C(=O)c3ccccc3)c2c1,inactive: -9.14%,
C=CCN1C(=O)c2ccc(C(=O)NCCOc3ccccc3F)cc2C1=O,,"inconclusive [inhibitor, single point]"
C#CCOc1c(Cl)cc(/C=N/NC(N)=S)cc1OCC,,"inconclusive [inhibitor, single point]"
CCOC(=O)c1c(-c2cccc([N+](=O)[O-])c2)csc1NC(=O)CCCOc1ccccc1,,"inconclusive [inhibitor, partial curve]"
CC(=O)Nc1ccc(NC(=O)c2sc(-c3ccccc3)nc2C)cc1,,"inconclusive [inhibitor, single point]"
O=[N+]([O-])c1ccc(-c2cnc3ccccc3n2)cc1,inactive: 11.3%,
O=C(O)C1(Nc2ccc(Br)cc2)CCCC1,inactive: 22%,
COc1nc(-c2ccccc2)ccc1-c1noc(C)n1,,"inconclusive [inhibitor, single point]"
CC(C)(C)n1cnc2cc(NCc3ccccc3O)ccc21,inactive: -10.8%,
Clc1ccc(-c2cc(-c3nnc4n3CCCCC4)c3ccccc3n2)cc1,inactive: 10.8%,
CCn1c(O)c(/C=C2\C=Nc3ccccc32)sc1=Nc1ccccc1,,"inconclusive [inhibitor, full curve, poor fit]"
CCOC(=O)Cc1c(C)[nH]c(=S)[nH]c1=O,inactive: 18.1%,
OCCNc1nc(-c2ccccc2)nc2c1oc1ccccc12,,"inconclusive [inhibitor, partial curve]"
C[C@@]12C(=O)Nc3ccc(Br)cc3C(=O)N1[C@H]1c3cc(Cl)ccc3OC[C@@H]1[C@@H]2c1ccccc1,,"inconclusive [inhibitor, partial curve]"
Cc1cc(C)c2c(CN3CCC(C)CC3)cc(=O)oc2c1C,,"inconclusive [inhibitor, partial curve]"
CCOc1ccc(S(=O)(=O)Nc2cccc(OC)c2)cc1,,active: 10 µM
COc1ccc2cc3cc(C(=O)NCc4ccc5c(c4)OCO5)oc3nc2c1,inactive: -7.32%,
O=C(NCc1cccs1)c1nc2c(nnn2Cc2ccccc2Cl)c(=O)[nH]1,,active: 5.01 µM
Cc1ccc(S(=O)(=O)SCCCSS(=O)(=O)c2ccc(C)cc2)cc1,,"inconclusive [inhibitor, single point]"
Cc1cc(C)n2nc(C(=O)Nc3cccc(S(=O)(=O)N4CCOCC4)c3)nc2n1,,"inconclusive [inhibitor, single point]"
Cc1c(/C=N\NC(=O)c2csc3ccccc23)cnn1C,,"inconclusive [inhibitor, single point]"
